Assay results reported in the RNAGym collection of RNA variant scans (doi:10.7554/elife.90254).
The source gives no read counts; variants with many changes may rest on few reads.

B1: LINE1-mini (parent)
chain: GGCAGAGCUCAACACAGCGUGGCAAAGUGGCUGUGGCUAGACUGCC

Variants of: B1
Test: self-cleavage, relative activity (ratio to wild type); higher = more cleavage; in vitro, sequencing; the parent is a self-cleaving ribozyme

Variant | self-cleavage
GGGAUCGCUCAACACAGCGUGGGAACGUGGCUGUGGCUAGACUACC | 0.1
GGCAGAGCUAAACAUCGCGUGGCGAAGCGGCUGUGUCUAGACUGCC | 0.02
GGCAGAGCUCAACACAACGUGGCCAAGUGAUUGUGGCUAGACUGCC | 0.14
GGCAGAGCUCAGCACAACGUGGCAAAGUGGCUGUGGCUAGUCUGCC | 0.01
GGCAGAUCUCGACACAGCGUGGCCAAGUGGCUGUGGCCAGACUGCC | 0
GUCAGAGCUCACAACAGCGUGGCAAAGUGGCUGUGGCUAGACUGCC | 0
GGCAGAGCUCAACACAGCGUGCCAAAGUGGAUGUGGCUAGACGGCC | 0.04
GGCAGAGCUCCACACAGCUUGGCAAAGUAGCUGUGGCUAGUCUGCC | 0.03
GGCAGAGCUCAACACAGCAUGGCAAAGUGGAUAUAGCUAGACUGCC | 0.14
GGCAGGCCUCAACACAGCGUGGCAAAGUGUCUGUGGCUAGGCUGCC | 0.01
GGCAGAGCCCAACACAGCGUGGCAAAGUGGCUGUGCCUUGACUGAC | 0.02
GGCAGAGCUCAGCACAGCGUGGCAAAUUGGUUGUGGCUAGACUGCC | 0.02
GGCAGAGCUCAACACAGCGUGGCUAAGUGGCUGAGGUUAGACUGCC | 0.04
GGCAGAGCUCAACACAGCGUGGCAAAGUGGCACUAGCUAGACUGCC | 0.07
GACAGAGCUCAACACAGCGUGGCAAAGUGGCUGUACCUAGCCUGCC | 0.12
GGCAGAGAUCAACACAGCGUGGCAAAGUAGCUGUGGCUCGACUGCC | 0.02
GGCAGAGCGCAACACAGCGUGGCAAAGUUGCUGUGGCUAGAGUGCC | 0.03
GGCAGAGCUGAACUCAGCCUGGCAACGUGGCUGUGGCUAGACUGCC | 0.04
GGCAGAGCUCAACACAGCGUGGCACAGUGGCUGUGCCUAGACUGCU | 0.02
GCCAGAGCUCAACACAGCGUGGCAAAGUGCCUGUGGCUAGAUUGCC | 0.15
GGCAGAGCUCAAUACACCGUGGGAAAGUCGUUGUGGCUAGACUGCC | 0.1
GGCAGAGCUCAACACAGCGUGGCAAAGGGGCUGUGGCUCUACUGCC | 0.04
GGCAAACCUCAACACAGCGUGGCAAAGUGGGUGUGGCUAGACUGCC | 0.11
GGCAGAGCUCUACACAGCGUGACCAAGUGGCUGUGGCUAAACUGCC | 0.01

Variant | self-cleavage
AUCAGAGCUAGAUACAGCGUGGCAAAGUGGCAGUGGCUAGACUGCC | 0.01
GGCAGAGCUCAACACAGCGUGGCAAAAUCGCUUUGGCUAGACAGCG | 0.12
GGCAGAGCUCAACACAGUGUGUCAAAGUGGCUGUAACUAGAAUGCC | 0.04
GGCAGAGCUCAACACAGCGUGGCAAAGUGACUAUGGCUGGAGUGCC | 0.03
GGCAGAGCUUAAUACAGCGUGGCAAAGUGGCUGUGGAUAGACUGCC | 0.01
GGCAGAGCUCAAAACAGCGCGGCAAAGUCGCUUUGGCUAAACCGCC | 0.01
GACAGAGUUCAACACAGCGUGUCAAAGUGGCUGUGGCUAGUCUGCC | 0.81
GGCAGACCUCCACACAGUGGGGCAAAGUGGCUAUGGCUAGCCUGCC | 0
GGCCGAGCUCACCAGAGCGUGGCAAAGUGGUUGUGGGUAGACUGCC | 0
GGCAGAGGUCAUCACACCGUGGCAAAGUGGCUGUGGCUAGACUGCC | 0.05
GGCAGAGCUCCACACAGUGUGGCAAAGUGGGUGUGGCUAGACUGCC | 0.01
GGCAGAGAUCAGCACAGCGUGGAAAAGUGGCUGUGGAUAGACUGCC | 0.12
GCCAGAGCUCAACACAGCGUGGCAACGUGGCUGUGGCUAGACUGCG | 0.04
GACAGAGCUCAACACGGCGUGGCAAAGGGGCUGUGGCUAGACUGCC | 0.95
GGGAGAGAUCAAUACAGCGUGGCCAAGUCGCUGUGGCUAGACUGCC | 0.07
GGCAGGGCUCCACACAGCGUUGCAAAGUGGCUGUGGCUAGACUGCC | 0.05
GUCAGAGCUCACCCCAGCGUGGCAAAGUGUCUGUGGCUAGACUGCC | 0.02
GGCAGAGCUUAACUGAGCGUGGCAAAGUGGCUGUGGCUAGACUGCC | 0.1
GGCAGAGCGCAAUACAGCGUGGCUAAGUGGCGGUGGCUCGACUGCC | 0.07
GACAGAGCUAAACACAUCGUGGCAAAGUGGCUGUGGUUAGACUGCC | 0.04
GGCAGAGCUCAACACAGCGUGGUAAAUUGGCUGUGGCUAGACUACC | 0.15
GGCACAGCUCAACACAGCGUGGCCAAGUUGCUGUGGCUAGACUGCC | 0.07
GGCAGCGCUCAACACAGCGUGGCAAAAUCGCUGUGGCUAGAACGCC | 0.03
GGCAGAAUUCAACACAGCGUGGCAAAGUGGUGGUCGCUAGACUGCC | 0.07

Variant | self-cleavage
GGCAGAGCUAAACACAGUGUGGCAAAGUGGCUGUCGCUAGACUGCU | 0.01
GGCAGAGCUCACCACAGCUUGGCAAAGUGGGUGUGGCUAGACUGCC | 0.01
GGCAUAGCUCAACACAUCAUGGCAAAGUGGCUCUGGAUAGACUGCC | 0.08
GGCAGAGCUGACCACAGCGUGCCAAAGUAGCUGUGGCUAGACUGCC | 0
GGCGGAGCUGAACAGAGCGUGGCAAAGUGGCUGUGGCUAGACUGCC | 0.01
GGUAGAGCUCAACGCAGCGUGGGCAAGUGGCUGUGGCUAGACUGCC | 0.16
CGGAGAGCUCAACACAGCGUCGCAAAGUGGCUUUGGCUUGACUGCC | 0
GGCAGAGCUGAACAGAGCGCGGCAAAGUGGCUGUGGCUAGACUGCC | 0.02
GGCAGAGCUCGACACAGAGUGGCAAAGUGCCUGUGGCUAGACUGCC | 0.03
GACAGAGCUCAACAGAGCGUGGCAAAGUGGGUGUGGUUAGACUGCC | 0.05
GGCAGAGCUAAACUCAGCGUGGCAAAGUGGGUGAGGCUAGACUGCC | 0.01
GGCAGAUCUCAACACAGAGUGGCAAAGAGGCUGUGGCUAGACUGAC | 0.02
GGCAGAGCUCAAAACAGCGUGGUAAAGUGGCUGUGGCUAAACUGCC | 0.12
GGCAGAGCUCAACACAGCCUGGCAAAGUGGUUGUAGCUAGACUGCC | 0.39
GUCAGAGCUCAACACAGCGUGGCCAAGUGGCUGUGGCUAGGCUGCC | 0.01
GGCAGAACUCAACACAGUGUGGCAAAGUGGCUGGGGCCAGACUGCC | 0.03
GGCAGAGUCCAACACUGCGUGGCAAAGUAGCUGUGCCUAGACUGCC | 0.04
GGUAGAGCUCAACACAGCGUGGUAUAGUGGCUGUCGCUAAACUGCC | 0.06
GGCAGAUCUCAACACAGCGUGGCAAGGUCGCUGUGGCUAGACUGCA | 0.04
GGCAGAGCACAACACCGCGUUGCAAAGUGGCUGUGGCUAGACUGCC | 0.06
GGCAGAGCUGAACAAAGCGUGGCAAAGUGGCUGUGGCUACACUGCC | 0.01
GGCAGAACUCAACACAGCUUGGCAAAGUGGCUUUGGCUAGACUGCC | 0.18
GGCCGAGCUCAACACAGCGUGGCAAUGUGGCUGUGGCUAUACUGCC | 0.01
